# Measurements reported in PubChem BioAssay AID720542 (National Center for Advancing Translational Sciences (NCATS), 2013).
# In all, about 360,000 compounds went through this assay and about 740 (0.21%) were called active. The inconclusive results got no clear call from the source; some entries with a clear call stand among them for comparison. Calls come from the whole dose curve; as a rule, active = well fitted inhibition curve with a large enough effect; inconclusive = small, poorly fitted or top-dose-only effect; inactive = no such curve, though single readings can be large or run the other way. Potencies of inconclusive entries are left out as doubtful fits.
# Test system: Plasmodium falciparum AMA1 (3D7) - RON2 peptide interaction
# Assay: qHTS for Inhibitors of AMA1-RON; Towards Development of Antimalarial Drug Lead: Primary Screen; note: nearly all actives have a fitted effect of over 45% in size
# Conditions: AlphaScreen AMA1-biotinylated RON2 peptide binding; series mostly up to 58.2 µM
# In short: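 AMA1 (3D7) with his tag at 25 nM final met compounds first, then biotinylated RON2 peptide at 25 nM; detection used donor plus acceptor beads, 10 µg/mL apiece, read by AlphaScreen after 30 min at room temperature.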
# Potency is the fitted concentration of half-maximal effect; tags give direction and shape of the fitted curve.
row,Structure (SMILES),Potency
1,Cc1nn(C)c(C)c1S(=O)(=O)NC1CCCC1,inactive
2,Cc1cccc(N=Nc2ccc(O)c3ncccc23)c1,"inconclusive [inhibitor, single point]"
3,Cc1cc(OCc2nc(N)nc(N)c2-c2ccc(Cl)c(Cl)c2)ccc1[N+](=O)[O-],"inconclusive [inhibitor, partial curve]"
4,CC(C)(Cc1ccc(O)cc1)NC(=O)CC(=O)N=Nc1c(O)[nH]c2ccc(Br)cc12,"inconclusive [inhibitor, partial curve]"
5,Clc1ccc(CNc2ccc(N3CCN(Cc4ccccc4)CC3)cc2)cc1,active: 7.94 µM
6,O=S(=O)(Cc1cc(-c2ccccc2)no1)c1ccccc1,"inconclusive [inhibitor, full curve, poor fit]"
7,CCN1CCN(CCCOc2ccc(Cl)cc2Br)CC1,"inconclusive [inhibitor, partial curve, poor fit]"
8,CCOc1ccccc1-c1c2cc(O)c(=O)cc-2oc2cc(O)c(O)cc12,"inconclusive [inhibitor, full curve]"
9,COc1ccc(/C=N/Nc2ccccc2C(=O)O)cc1Cn1cc([N+](=O)[O-])cn1,inactive
10,CCc1ccc2nc(N(CCCN(C)C)C(=O)c3ccc(C(=O)c4ccccc4)cc3)sc2c1,"inconclusive [inhibitor, partial curve]"
11,Oc1c(CN2CCOCC2)cc(CN2CCOCC2)c(O)c1O,active: 11.2 µM
12,COc1ccc(-n2cnnc2SCC(=O)c2cc(C)n(Cc3cccs3)c2C)cc1,"inconclusive [inhibitor, single point]"
13,CCC(C)(C)c1ccc(Oc2ccc(N)cc2)cc1,"inconclusive [inhibitor, single point]"
14,COCCn1c(-c2ccccc2)cnc1SCC(=O)Nc1cccc2ccccc12,"inconclusive [inhibitor, partial curve]"
15,COc1ccc(C2CC(c3ccc4ccccc4c3)=NN2C(=O)CN2C(=O)CCC2=O)cc1 (stereo not drawn),inactive
16,CC(/C=C/C1(O)C(C)CC(O)CC1(C)C)OC1OC(CO)C(O)C(O)C1O (stereo not drawn),"inconclusive [inhibitor, partial curve]"
17,N#Cc1nc(-c2ccc(Cl)cc2)oc1N1CCCCC1,"inconclusive [inhibitor, single point]"
18,Cc1ccccc1CSCC(=O)NCc1ccco1,"inconclusive [inhibitor, partial curve]"
19,Cc1ccccc1NC(=O)c1cc(-c2ccco2)nc2ccccc12,"inconclusive [inhibitor, partial curve]"
20,COc1ccc(-c2ccc(N(C)C)cc2)cc1[C@H]1[C@H]2C=CC[C@@H](C)[C@@H]2C(=O)N1Cc1ccccc1,"inconclusive [inhibitor, partial curve]"
21,Cc1nn(CC(=O)O)c(C)c1[N+](=O)[O-],"inconclusive [inhibitor, single point]"
22,O=C(NC(Cc1ccccc1)C(=O)O)C1CCN(S(=O)(=O)c2ccccc2C(F)(F)F)CC1 (stereo not drawn),inactive
23,O=C1C=C(C2CCCCC2)C(=O)c2ccccc21,"inconclusive [inhibitor, partial curve]"

row,Structure (SMILES),Potency
1,CCO[C@H]1OC(C(=O)N2CCOCC2)=C[C@@H](C)[C@@H]1CCCO,inactive
2,COC(=O)c1ccc(-c2ccco2)n1Cc1nc(-c2ccc(OC)c(OC)c2)oc1C,"inconclusive [inhibitor, partial curve]"
3,COc1cccc(C(=O)NC(=S)Nc2ccccc2N2CCCC2)c1,"inconclusive [inhibitor, single point]"
4,COc1cc(Cl)cc2c1Sc1ccccc1/C2=C/CCN(C)C,"inconclusive [inhibitor, partial curve]"
5,COC(=O)C1=C(C(=O)OC)SC2(S1)C(C(=O)OC)=C(C(=O)OC)SC1=C2c2cc(C)cc(C)c2NC1(C)C,"inconclusive [inhibitor, partial curve]"
6,C=CCn1c(SCCOc2ccc(OC)cc2)nnc1C(C)NC(=O)c1ccc(OC)cc1 (stereo not drawn),"inconclusive [inhibitor, single point]"
7,Clc1cccc(Cl)c1OCCOCCNCc1ccccc1,"inconclusive [inhibitor, partial curve]"
8,CCOC(=O)[C@]12CCCC=C1N(Cc1ccc3c(c1)OCO3)C(=O)[C@H](CC(=O)N1CCCCC1)C2,inactive
9,COc1ccc(NC(=O)COC(=O)C2CCC(C(C)(C)C)CC2)c([N+](=O)[O-])c1 (stereo not drawn),"inconclusive [inhibitor, partial curve]"
10,COc1ccc(-n2nc([N+](=O)[O-])c(=NCCc3cccc(C)c3)n2O)cc1,"inconclusive [inhibitor, partial curve]"
11,CC(C)(C)C(=O)Nc1nc(-c2ccc3c(c2)OCO3)cs1,inactive
12,O=C(Cn1cnc([N+](=O)[O-])n1)N/N=C/c1ccccc1O,"inconclusive [inhibitor, single point]"
13,O=S(=O)(c1ccc2c(c1)oc1ccccc12)N1CCOCC1,inactive
14,CCOC(=O)c1nc(N)c(C(=O)OCC)[nH]1,inactive
15,CCN1/C(=C/C=C/c2sc3ccccc3[n+]2CC)Sc2ccccc21,"inconclusive [inhibitor, single point]"
16,COc1ccc(CNC(C)C(=O)Nc2ccc3ccccc3c2)cc1OC (stereo not drawn),inactive
17,CC(=O)Nc1ccc(C(=O)/C=C/c2ccc[nH]2)cc1,"inconclusive [inhibitor, partial curve, poor fit]"
18,CCOC(=O)c1c(NC(=O)Cn2cnc3scc(-c4ccc(C)cc4)c3c2=O)sc(C)c1C,"inconclusive [inhibitor, full curve, poor fit]"
19,COc1ccc(C2=C(CN(C)C)C(c3ccccc3)c3ccccc3O2)cc1 (stereo not drawn),"inconclusive [inhibitor, single point]"
20,COc1cccc(NC(=O)CN(C)C(C)C(=O)N2CCCCC2)c1 (stereo not drawn),inactive
21,Brc1ccc(CNc2cc3c(cc2Br)OCCO3)cc1,active: 12.6 µM
22,CCOc1ccccc1NC(=O)c1ccc(CN2CCc3ccccc3C2)cc1,"inconclusive [inhibitor, single point]"
23,COc1ccc(-n2nc3c(c2NC(=O)C2CCCC2)CS(=O)(=O)C3)cc1,inactive

row,Structure (SMILES),Potency
1,CCOC(=O)c1ccc(NC(c2ccc(N(C)C)cc2)P(=O)(OC(C)C)OC(C)C)cc1 (stereo not drawn),"inconclusive [inhibitor, single point]"
2,O=C(NN1C(=O)/C(=C\c2ccc(O)c([N+](=O)[O-])c2)SC1=S)c1ccccc1Cl,"inconclusive [inhibitor, single point]"
3,O=C1NC(CCc2ccccc2)C(=O)N1Cc1ccc(Br)cc1 (stereo not drawn),"inconclusive [inhibitor, single point]"
4,Nc1ccc(OCc2ccccc2)cc1[N+](=O)[O-],"inconclusive [inhibitor, single point]"
5,O=[N+]([O-])c1ccc(C(=S)N2CCC(Cc3ccccc3)CC2)cc1,"inconclusive [inhibitor, single point]"
6,COc1ccc(Br)cc1CN(C)CC(O)COc1ccc(Br)cc1 (stereo not drawn),"inconclusive [inhibitor, partial curve]"
7,COc1cccc(C(=O)N2CCN(Cc3ccc(OC)cc3OC)CC2)c1,"inconclusive [inhibitor, single point]"
8,CC(CCc1ccccc1)NC(=O)c1cc2sccc2n1C (stereo not drawn),"inconclusive [inhibitor, partial curve]"
9,c1ccc(-c2ccc(-c3ccncn3)cc2)cc1,"inconclusive [inhibitor, partial curve]"
10,COCCCNC(=O)C[C@H]1C[C@H](C(=O)N2CCCCC2)[C@@]2(C)c3[nH]c4cc(-c5ccco5)ccc4c3CCN2C1=O,"inconclusive [inhibitor, partial curve]"
11,CN(C)c1ccc(C(=O)/C=C/c2ccco2)cc1,inactive
12,O=C(Cc1ccccc1)N1CCN(CC2CC=CCC2)CC1 (stereo not drawn),"inconclusive [inhibitor, single point]"
13,O=S(=O)(NCC1OCCc2ccccc21)c1ccccc1 (stereo not drawn),"inconclusive [inhibitor, full curve, poor fit]"
14,COc1ccc2cc3[n+](cc2c1O)CCc1cc2c(cc1-3)OCO2,"inconclusive [inhibitor, full curve]"
15,Cc1ccccc1C(=O)OCCN(C)Cc1ccccc1,"inconclusive [inhibitor, partial curve]"
16,CSc1ccccc1OCc1cc(C(=O)NCc2cnc(C)cn2)no1,inactive
17,COC(=O)Cn1cnc2sc(C)c(S(=O)(=O)N3CCN(c4ccccc4OC)CC3)c2c1=O,"inconclusive [inhibitor, full curve, poor fit]"
18,S=C(NCc1cccnc1)Nc1ccc(Cl)cc1,inactive
19,COc1ccc(CNc2ccc(N3CCOCC3)cc2)cc1,"inconclusive [inhibitor, partial curve]"
20,CCOc1ccc(N(C)Cc2cc(=O)oc3ccc(OC)cc23)cc1,"inconclusive [inhibitor, single point]"
21,CCCCNC(=O)CN1CCN(Cc2ccc3cc(OC)ccc3c2)CC1,"inconclusive [inhibitor, partial curve]"
22,C=CCN1C(=O)/C(=C\c2cccs2)C(C(=O)OC)=C1C,"inconclusive [inhibitor, single point]"
